# Measured values from article PMC5515408.
# The list shows a part of the results. At the low end of the ranking, values are background and their order means little.
# Molecular target: MAX:MAX (p21) (UniProt P61244-2)
# Experiment: protein-binding microarray (anti-MAX antibody)
# Conditions: PBM: 15 mM Tris-HCl pH 7.5, 100 mM KCl, 0.075% NP40, 7.5 mM beta-mercaptoethanol, 375 ng/ul BSA, 8 ng/ul poly(dA-dT):(dA-dT), 550 ng complex, 60 min, room …; high values mean tight binding; double strand, one strand shown; sequences stand for … in CCGGC…TTAATAGCTAAGATTACTATATCGACG
row,Sequence,binding signal (log2 normalized fluorescence)
1,TGAGCCTCCGTA,-1.08
2,TTACACCTGGGA,1.69
3,TGACATGAAGTA,0.66
4,TGAGTACCGGTA,-0.993
5,TGATATCCCGTA,-0.793
6,TGATACGGTGTA,-0.45
7,TGATTTGTCGTA,-1.1
8,TGATGAACAGTA,-0.468
9,TGAACATTAGTA,-0.122
10,TGAACTTCTGTA,-0.745
11,TGATGGCGTGTA,1.52
12,TGACTTGGCGTA,-0.637
13,TGATACGATGTA,-0.608
14,TGAATTTACGTA,-1.05
15,TGACTTCTGGTA,-0.72
16,TGATTATTCGTA,-1.41
17,TTTCACGTGGTA,3.41
18,TGAACAAAGGTA,-0.6
19,TCTGACGTGGTA,1.03
20,TGAGGTGAAGTA,-0.363
21,TGACTCGGCGTA,-0.734
22,TGCCACGTCGTA,2.07
23,TGATATCATGTA,0.461

row,Sequence,binding signal (log2 normalized fluorescence)
1,TGAGCTCGCGTA,-0.391
2,TGACCTCCAGTA,-0.145
3,TGATCCGAGGTA,-1.01
4,GGGCACGTGGTC,3.13
5,TGCCACGTGGAA,3.31
6,TGAGTGCAAGTA,0.0591
7,TGAGAAGGAGTA,-0.827
8,TGAGCGTTCGTA,-0.463
9,TGATGTAAAGTA,-0.17
10,TGAAACGAGGTA,1.04
11,TGAGCAACTGTA,-0.378
12,TGAACTAGGGTA,-0.66
13,TGACTCGCCGTA,0.0811
14,TGAAAACTGGTA,-0.987
15,TGACACGTGCCA,3
16,TATCACGTGGTA,3.15
17,TGACGAGAAGTA,-0.796
18,TAACACGCGGTC,3.15
19,TGACACGGCGTC,1.15
20,TGATCCTTTGTA,-0.81
21,TGAAACCAGGTA,-0.0586
22,TGATCCTAAGTA,-0.9
23,TGACGGCGGGTA,-0.16

row,Sequence,binding signal (log2 normalized fluorescence)
1,TGAATAGTGGTA,-0.358
2,TGACCATAAGTA,0.735
3,TGACCCGTGGCA,2.62
4,TGATCTGGAGTA,-0.837
5,TGACGTACAGTA,-0.0346
6,TTACACGTGGGA,3.12
7,TGACACATGGCA,3.15
8,TGAGGACGTGTA,0.156
9,TGATTTAAGGTA,-0.887
10,TGACGACACGTA,0.437
11,TGACTCGAGGAA,0.872
12,TGATAGAAAGTA,-0.929
13,TGAGATGTCGTA,-0.536
14,TGATTAAAGGTA,-0.83
15,TGAAGCACGGTA,1.29
16,TGACTGATGGTA,0.373
17,TGACCTACTGTA,-0.113
18,TGAACGTGGGTA,2.48
19,TGACAAATGGTG,0.536
20,TGAGCGCCCGTA,-0.763
21,TGAGTGCCGGTA,-0.394
22,TGATGAGTCGTA,-0.776
23,TGACCAATAGTA,-0.432

row,Sequence,binding signal (log2 normalized fluorescence)
1,TGACGGGATGTA,0.146
2,TGACACGCGATT,2.61
3,TGACGACCAGTA,-0.263
4,TGAGACTGTGTA,-0.592
5,TGAGGAATGGTA,-0.0673
6,TGATTTTTCGTA,-1.32
7,TGACGATAAGTA,-0.762
8,TGAGCCGGCGTA,-0.488
9,TGACGGATAGTA,-0.838
10,TGAAGTTACGTA,-0.683
11,TGACCCGAAGTA,-0.27
12,TGACAAATAGTA,-0.62
13,TGAACACAAGTA,0.941
14,TTACGCGTGGTC,3.19
15,TGACTGCATGTA,1.75
16,GGAGACGATGTT,-0.341
17,CAAGTTACTAAA,-0.748
18,TGAATAGCGGTA,-1.04
19,TAACGGGTGGTA,1.04
20,TGATTTTTAGTA,-1.59
21,TGACTCCATGTA,0.264
22,TGAAATTGGGTA,-1.15
23,TGATCTCGAGTA,-0.182

row,Sequence,binding signal (log2 normalized fluorescence)
1,TGACACTTGGAA,0.118
2,TGAAAGCGTGTA,2.69
3,TGACCCACTGTA,0.127
4,TGACTGTACGTA,-0.112
5,TGATCTAGCGTA,-0.952
6,TGATATGAAGTA,-0.876
7,TGATACCAAGTA,-0.868
8,TGAGGCAGGGTA,-0.45
9,TGATAGTATGTA,-0.223
10,TGACACCTGCTA,2.29
11,TGACACCTGGTA,2.01
12,TGACTCGTGGCA,3.22
13,TGACCGCCTGTA,1.42
14,TGATCACCAGTA,0.0178
15,TGACTACGTGTA,0.857
16,TGATGCGGAGTA,-0.473
17,TGATCCCCTGTA,-0.408
18,TGAACCCGGGTA,-0.494
19,TGAGGTCGAGTA,-1.1
20,TGAGTTTAAGTA,-1.2
21,TGAGCCGACGTA,-0.798
22,TGATTCCACGTA,0.0937
23,TGAACTTATGTA,-0.0804

row,Sequence,binding signal (log2 normalized fluorescence)
1,TGAGATTCAGTA,-1.26
2,TGAGGTATGGTA,0.477
3,TGATGCGTTGTA,0.14
4,TGATGTGTTGTA,0.284
5,TGACATTTCGTA,-0.398
6,TGACACTACGTA,-0.11
7,TGAACCATAGTA,-0.481
8,TGAAGTGGTGTA,-0.188
9,TGAGCGGTCGTA,-0.858
10,TGAGAGCCCGTA,-0.738
11,TGATTTGCGGTA,-0.786
12,CGACACGTGGAA,3.32
13,TGAGACGTGCTA,1.27
14,TGAAAACAAGTA,-0.566
15,TGAATTAATGTA,-0.316
16,TGAGAATGCGTA,0.19
17,TCCCACGTGGTA,3.4
18,TGAGCAAGAGTA,-0.65
19,TGATACAGCGTA,-0.85
20,TGACACATAGTA,0.475
21,TGACACACCGTA,1.15
22,TGAGTTGCCGTA,-0.919
23,TGAAGAGGGGTA,0.0222
